Assay results published in the RNAGym collection of RNA variant scans (doi:10.1073/pnas.2313332121).
Variants at the floor of the assay are shown more often than the library holds them.

B1: TPR 5TU (parent)
chain: GGAUCUUCUCGAUCUAACAAAAAAGACAAAUCUGCCACAAAGCUUGAGAGCAUCUUCGGAUGCAGAGGCGGCAGCCUUCGGUGGCGCGAUAGCGCCAACGUUCUCAACUAUGACACGCAAAACGCGUGCUCCGUUGAAUGGAGUUUAUCAUG

Variants of: B1
Test: polymerase ribozyme fitness, log enrichment relative to wild type (log ratio); higher = more active; in vitro selection for triplet polymerase activity
Outline: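 One round of in vitro selection, in triplicate, was applied to PCR-built, transcribed mutant libraries of each subunit of a heterodimeric triplet polymerase ribozyme. The steps were annealing with a biotinylated primer, partner subunit and triplets, incubation frozen at −7 °C, gel excision of extended constructs, streptavidin-bead capture and RT-PCR. Fitness is the logarithm, base 2, of genotype enrichment over wild-type enrichment from inverse-variance-weighted replicate averages of Illumina-sequenced inputs and outputs, keeping genotypes with ≥10 input reads and ≥1 read per output.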

Row | Variant | polymerase ribozyme fitness (log ratio)
1 | GGAUCUUCUCGAUCUAACAAAAAAGACAAAUCUGCCACAAAGCUUGAGAGCAUCUUCGGAUGCAGAGGCGGCACCCUUCGGUGGCGCGAUAGCGCCAACGUUCUCAACUAUGACACGAAAAACGCGUGCUCCGUUGAAUGGAGUUUAUCAUG [G74C C118A] | ≤ -4.2
2 | GGAUCUUCUCGAUCUAACAAAAAAGACAAAUCUGCCACAAAGCUUGAGAGCAUCUUCGGAUGCAGAGGCGGCAACCUUCGGUGGCGCGAUUGCGCCAACGUUCUCAACUAUGACACUCAAAACGCGUGCUCCGUUGAAUGUAGUUUAUCAUG [G74A A91U G117U G141U] | ≤ -4.2
3 | GGAUCUUCUCGAUCUAACAAAAAAGACAAAUCUGCCACAAAGCUUGAGAGCAUCUUCGGAUGCAGAGGCGGCUGCCUUCGGUGACGCGAUAGCGCCACCGUUCUCAACUAUGACACGCAAAACGCAUGCUCCGUUGAAUGCAGUUUAUCAUG [A73U G84A A98C G126A G141C] | ≤ -4.2
4 | GGAUCUUCUCGAUCUAACAAAAAAGACAAAUCUGCCACAAAGCUUGAGAGCAUCUUCGGAUGCAGAGGCGGCACCCUUCGGUCGCGCGAUAGCGCCAAGGUUCUCAUCUAUGACAAGCAGAACGCGUGCUCCGCUGAAUGGAGUAUAUCAUG [G74C G83C C99G A107U C116A A120G U134C U145A] | ≤ -4.2
5 | GGAUCUUCUCGAUCUAACAAAAAAGACAAAUCUGCCACAAAGCUUGAGAGCAUCUUCGGAUGCAGAGGCGGCAACCUUCGGUGGUGCGAUAGCGCCAACGUUCUCAACUAUGACACGCAAAACGCGUGCUCCGUUGAAUGGAGUUUAUCAUG [G74A C85U] | -3.54
6 | GGAUCUUCUCGAUCUAACAAAAAAGACAAAUCUGCCACAAAGCUUGAGAGCAUCUUCGGAUGCAGAGGCGGCAACCUUCGGUGGCGCAAUAGCGCCAACGUGCUCAACUAUGACACGCAAAACGCGUGCUCCGUUGAAUGGACUUGAUCAUG [G74A G88A U102G G143C U146G] | ≤ -4.2
7 | GGAUCUUCUCGAUCUAACAAAAAAGACAAAUCUGCCACAAAGCUUGAGAGCAUCUUCGGAUGCAGAGGCGGCUGCCUUCGGUGGCGCGAUAGCGCCAACGUUCUCAACUAUGACACGCAAAACGCGUGCUCCGUUGAAUGAAGUUUAUAAUG [A73U G141A C149A] | ≤ -4.2
8 | GGAUCUUCUCGAUCUAACAAAAAAGACAAAUCUGCCACAAAGCUUGAGAGCAUCUUCGGAUGCAGAGGCGGCUGCCUUCGGUGGCGCGAUAGCGCCAACGUUCUCAACUAUGACACGCAAAACGCGUGCUCCUUUGAAUGGAGUUUCUCAUG [A73U G133U A147C] | ≤ -4.2
9 | GGAUCUUCUCGAUCUAACAAAAAAGACAAAUCUGCCACAAAGCUUGAGAGCAUCUUCGGAUGCAGAGGCGGCAACCUUCGGGGGCGCGAUAUCGCCAAAGUUCUCAACUAUGACACGCAAAACGCGUGCUACGUUGAAUGGAGUUUAUCAUG [G74A U82G G92U C99A C131A] | ≤ -4.2
10 | GGAUCUUCUCGAUCUAACAAAAAAGACAAAUCUGCCACAAAGCUUGAGAGCAUCUUCGGAUGCAGAGGCGGCACCCUUCGGUGGCGCGAUAGCGCCAACGUUCUCAACUAUGACACGCAAAACGCGUGCUGCGUUUAAUGGAGUUUAUCAUG [G74C C131G G136U] | ≤ -4.2
11 | GGAUCUUCUCGAUCUAACAAAAAAGACAAAUCUGCCACAAAGCUUGAGAGCAUCUUCGGAUGCAGAGGCGGCUGCCUUCGGUGUCUCGAUAGCGCCAACGUUCUCAACUAUGACACGCAAAACGCGUGCUCCGUUGAAUGGAGUUUAUCAUG [A73U G84U G86U] | ≤ -4.2
12 | GGAUCUUCUCGAUCUAACAAAAAAGACAAAUCUGCCACAAAGCUUGAGAGCAUCUUCGGAUGCAGAGGCGGCACCCUUCGGUGGCGCGAUAGCGCCUACGUUCUCAACUAUGACACGCAAAACGCGUGCUCAGUUGAAUGAACUUUAUCAUG [G74C A97U C132A G141A G143C] | ≤ -4.2
13 | GGAUCUUCUCGAUCUAACAAAAAAGACAAAUCUGCCACAAAGCUUGAGAGCAUCUUCGGAUGCAGAGGCGGCACCCUUCGGUGGCGCGAUAGCGCCAACGUUCUCCACUAUGACACGCAAAACGCGUGCUCCGUUGAAUGGAGUUUAUCAGG [G74C A106C U151G] | ≤ -4.2
14 | GGAUCUUCUCGAUCUAACAAAAAAGACAAAUCUGCCACAAAGCUUGAGAGCAUCUUCGGAUGCAGAGGCGGCUGCCUUCGGUGUCGCGAAAGCGCCAACGUCCUCAACUAUGACACGCAAAUCGCGUGCUCCGUUGAAUGGAGUUUAUCAUG [A73U G84U U90A U102C A122U] | ≤ -4.2
15 | GGAUCUUCUCGAUCUAACAAAAAAGACAAAUCUGCCACAAAGCUUGAGAGCAUCUUCGGAUGCAGAGGCGGCAACCUUCGGUGGCGCGAUAGCGCCAACGUUCUCAACUAUGACACGCAAAACGCGUGCUCCGUUGAAUGUAGUUUAUCAUG [G74A G141U] | -2.35
16 | GGAUCUUCUCGAUCUAACAAAAAAGACAAAUCUGCCACAAAGCUUGAGAGCAUCUUCGGAUGCAGAGGCGGCACCCUUCGGUGGCGCGAUAGAGCCAACGUUCUCAACUAUGACACGCAAAACGCGUGCUCCGUUUAAUGGAGUUUAUCAAG [G74C C93A G136U U151A] | ≤ -4.2
17 | GGAUCUUCUCGAUCUAACAAAAAAGACAAAUCUGCCACAAAGCUUGAGAGCAUCUUCGGAUGCAGAGGCGGCACCCUUCGGUCGCGCGAUAGCGCGAACGUUCUCAACUAUGACACGCAAAACGCGUGCUCCGUUGAAUGGAGUCUAUCAUG [G74C G83C C96G U145C] | ≤ -4.2
18 | GGAUCUUCUCGAUCUAACAAAAAAGACAAAUCUGCCACAAAGCUUGAGAGCAUCUUCGGAUGCAGAGGCGGCAACCAUCGGUGGCGCGAUAUCGCCAACGUUCUCAACUAUUACACGCAAAACACGUGCUCCGUUGAAUGGAGUUUAUCAUG [G74A U77A G92U G112U G124A] | ≤ -4.2
19 | GGAUCUUCUCGAUCUAACAAAAAAGACAAAUCUGCCACAAAGCUUGAGAGCAUCUUCGGAUGCAGAGGCGGCUGCCUUCGGUGGCGCGAUAGCGCCAACGUUCUCAACUAUGACACGCAAAACGCUUGCUCCGUUGAAUGGAGUUUAUCAUG [A73U G126U] | -0.661
